# Test results from the supplement of paper PMC8728848.
# The other results are listed elsewhere or left out.
# B1: ASA (Allium sativum) (protein)
# chain: KAHEKERMGRNTPSAKLMSIAAVAAILTILASTCMARNLLTNGEGLYAGQSLNVEPYHFIMQEDCNLVLYDHSTAVWATNTDIPGKKECRAVLQSDGNFVVYDADGRPLWASHSVRGNGNYVLVLQEDGNVVIYGSDIWSTGTYVKAARGPVVVAMNGTVDGGSLIRPVIVNKNHVPVIRKVGTLSRNILRNDEGLYAGQSLDVEPYHFIMHEDCNLVLYDHSTAVWASNTDIPGKKGCKAVLQSDGNFVVYDAEGRSLWASHSVRGNGNYVLVLQEDGNVVIYGSDIWSTDTYRKSARGPVIRKVGTLAGAA
# Columns and labels:
# Assay in all cases: glycan array binding signal (z-score within array); higher = stronger binding
# Conditions in all cases: glycan notation: IUPAC condensed, linker removed
# [1] = target: Gal(a1-3)Gal(b1-3)Glc
# Summary of the method: (§1)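 Glycan array binding is given as a within-array Z-score, which can be read as non-binding when negative. The arrays, 3228 of them, came from the Consortium for Functional Glycomics database and were retained only where the protein sequence was available. Z-scores were averaged across arrays of the same protein sequence at different concentrations or buffers and across linkers.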
# [2] = target: Gal(a1-3)Gal(b1-3)GlcNAc
# Summary of the method: as §1
# [3] = target: Gal(a1-3)Gal(b1-4)GlcNAc
# Summary of the method: as §1
# [4] = target: Gal(a1-3)Gal(b1-4)[Fuc(a1-3)]GalNAc
# Summary of the method: as §1
# [5] = target: Gal(a1-3)GlcNAc
# Summary of the method: as §1
# [6] = target: Gal(a1-3)[Gal(a1-4)]Gal(b1-4)GlcNAc
# Summary of the method: as §1
# [7] = target: Gal(a1-4)Gal(b1-4)Gal
# Summary of the method: as §1
# [8] = target: Gal(a1-4)Gal(b1-4)GalNAc
# Summary of the method: as §1
# [9] = target: Gal(a1-4)GlcNAc
# Summary of the method: as §1
# [10] = target: Gal(a1-6)Glc
# Summary of the method: as §1
# [11] = target: Gal(b1-2)Gal
# Summary of the method: as §1
# [12] = target: Gal(b1-3)Gal
# Summary of the method: as §1
# [13] = target: Gal(b1-3)GalNAc
# Summary of the method: as §1
# [14] = target: Gal(b1-3)GalNAc(b1-3)Gal(a1-4)Gal(b1-4)Glc
# Summary of the method: as §1
# [15] = target: Gal(b1-3)GalNAc(b1-3)Gal(b1-4)Glc
# Summary of the method: as §1
# [16] = target: Gal(b1-3)GalNAc(b1-3)Gal(b1-4)GlcNAc
# Summary of the method: as §1
# [17] = target: Gal(b1-3)GalNAc(b1-4)Gal(b1-4)Glc
# Summary of the method: as §1
# [18] = target: Gal(b1-3)GalNAc(b1-4)[Neu5Ac(a2-3)]Gal(b1-4)Glc
# Summary of the method: as §1
# [19] = target: Gal(b1-3)[Fuc(a1-4)]GlcNAc
# Summary of the method: as §1
# [20] = target: Gal(b1-3)[Fuc(a1-4)]GlcNAc(b1-3)Gal(b1-4)GlcNAc
# Summary of the method: as §1
# [21] = target: Gal(b1-3)[Fuc(a1-4)]GlcNAc(b1-3)Gal(b1-4)[Fuc(a1-3)]GlcNAc
# Summary of the method: as §1
# [22] = target: Gal(b1-3)[GlcNAc(b1-6)]GalNAc
# Summary of the method: as §1
# [23] = target: Gal(b1-3)[GlcNAc(b1-6)]GlcNAc
# Summary of the method: as §1
# [24] = target: Gal(b1-3)[Neu5Ac(a2-6)]GalNAc
# Summary of the method: as §1
# [25] = target: Gal(b1-3)[Neu5Ac(a2-6)]GlcNAc
# Summary of the method: as §1
# [26] = target: Gal(b1-3)[Neu5Ac(a2-6)]GlcNAc(a1-4)Gal(b1-4)Glc
# Summary of the method: as §1
# [27] = target: Gal(b1-3)[Neu5Ac(b2-6)]GlcNAc
# Summary of the method: as §1
# [28] = target: Gal(b1-4)GalNAc(a1-3)[Fuc(a1-2)]Gal(b1-4)GlcNAc
# Summary of the method: as §1
# [29] = target: Gal(b1-4)GalNAc(b1-3)[Fuc(a1-2)]Gal(b1-4)GlcNAc
# Summary of the method: as §1
# [30] = target: Gal(b1-4)Glc
# Summary of the method: as §1
# [31] = target: Gal(b1-4)Glc6S
# Summary of the method: as §1
# [32] = target: Gal(b1-4)GlcNAc
# Summary of the method: as §1
# [33] = target: Gal(b1-4)GlcNAc(b1-2)Man(a1-3)[Gal(b1-4)GlcNAc(b1-2)Man(a1-6)]Man(b1-4)GlcNAc(b1-4)GlcNAc
# Summary of the method: as §1
# [34] = target: Gal(b1-4)GlcNAc(b1-3)Gal(b1-4)Glc
# Summary of the method: as §1
# [35] = target: Gal(b1-4)GlcNAc(b1-3)Gal(b1-4)GlcNAc
# Summary of the method: as §1
# [36] = target: Gal(b1-4)GlcNAc(b1-3)Gal(b1-4)GlcNAc(b1-3)Gal(b1-4)GlcNAc
# Summary of the method: as §1
# [37] = target: Gal(b1-4)GlcNAc(b1-3)Gal(b1-4)[Fuc(a1-3)]GlcNAc(b1-3)Gal(b1-4)[Fuc(a1-3)]GlcNAc
# Summary of the method: as §1
# [38] = target: Gal(b1-4)GlcNAc(b1-3)GalNAc
# Summary of the method: as §1
binder,measurement,setting,value
B1,glycan array binding signal (z-score),[1],-0.221
same,glycan array binding signal (z-score),[2],-0.207
same,glycan array binding signal (z-score),[3],-0.226
same,glycan array binding signal (z-score),[4],-0.238
same,glycan array binding signal (z-score),[5],-0.184
same,glycan array binding signal (z-score),[6],-0.219
same,glycan array binding signal (z-score),[7],-0.222
same,glycan array binding signal (z-score),[8],-0.2
same,glycan array binding signal (z-score),[9],-0.223
same,glycan array binding signal (z-score),[10],-0.214
same,glycan array binding signal (z-score),[11],-0.229
same,glycan array binding signal (z-score),[12],-0.226
same,glycan array binding signal (z-score),[13],-0.222
same,glycan array binding signal (z-score),[14],-0.229
same,glycan array binding signal (z-score),[15],-0.235
same,glycan array binding signal (z-score),[16],-0.231
same,glycan array binding signal (z-score),[17],-0.222
same,glycan array binding signal (z-score),[18],-0.196
same,glycan array binding signal (z-score),[19],-0.215
same,glycan array binding signal (z-score),[20],-0.208
same,glycan array binding signal (z-score),[21],-0.193
same,glycan array binding signal (z-score),[22],-0.211
same,glycan array binding signal (z-score),[23],-0.181
same,glycan array binding signal (z-score),[24],-0.233
same,glycan array binding signal (z-score),[25],-0.19
same,glycan array binding signal (z-score),[26],-0.154
same,glycan array binding signal (z-score),[27],-0.217
same,glycan array binding signal (z-score),[28],-0.234
same,glycan array binding signal (z-score),[29],-0.207
same,glycan array binding signal (z-score),[30],-0.23
same,glycan array binding signal (z-score),[31],-0.198
same,glycan array binding signal (z-score),[32],-0.223
same,glycan array binding signal (z-score),[33],-0.037
same,glycan array binding signal (z-score),[34],-0.205
same,glycan array binding signal (z-score),[35],-0.165
same,glycan array binding signal (z-score),[36],-0.217
same,glycan array binding signal (z-score),[37],-0.166
same,glycan array binding signal (z-score),[38],-0.23
